In PMC4336329 (PLoS ONE, 2015):
Among all 310,000 compounds or so, about 14,000 (4.5%) showed an effect of 50% or more. Effects have a minus sign here. The list shows a part of the results.

What follows are molecules tested against human ether-à-go-go-related gene (hERG) potassium channel (human, UniProt Q12809) (assay: primary screen, population patch clamp on CHO cells stably expressing hERG).
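Note: peak tail current of the secondary pulse compared with the same well before compound.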

Chain of human ether-à-go-go-related gene (hERG) potassium channel (Q12809 whole entry, looked up): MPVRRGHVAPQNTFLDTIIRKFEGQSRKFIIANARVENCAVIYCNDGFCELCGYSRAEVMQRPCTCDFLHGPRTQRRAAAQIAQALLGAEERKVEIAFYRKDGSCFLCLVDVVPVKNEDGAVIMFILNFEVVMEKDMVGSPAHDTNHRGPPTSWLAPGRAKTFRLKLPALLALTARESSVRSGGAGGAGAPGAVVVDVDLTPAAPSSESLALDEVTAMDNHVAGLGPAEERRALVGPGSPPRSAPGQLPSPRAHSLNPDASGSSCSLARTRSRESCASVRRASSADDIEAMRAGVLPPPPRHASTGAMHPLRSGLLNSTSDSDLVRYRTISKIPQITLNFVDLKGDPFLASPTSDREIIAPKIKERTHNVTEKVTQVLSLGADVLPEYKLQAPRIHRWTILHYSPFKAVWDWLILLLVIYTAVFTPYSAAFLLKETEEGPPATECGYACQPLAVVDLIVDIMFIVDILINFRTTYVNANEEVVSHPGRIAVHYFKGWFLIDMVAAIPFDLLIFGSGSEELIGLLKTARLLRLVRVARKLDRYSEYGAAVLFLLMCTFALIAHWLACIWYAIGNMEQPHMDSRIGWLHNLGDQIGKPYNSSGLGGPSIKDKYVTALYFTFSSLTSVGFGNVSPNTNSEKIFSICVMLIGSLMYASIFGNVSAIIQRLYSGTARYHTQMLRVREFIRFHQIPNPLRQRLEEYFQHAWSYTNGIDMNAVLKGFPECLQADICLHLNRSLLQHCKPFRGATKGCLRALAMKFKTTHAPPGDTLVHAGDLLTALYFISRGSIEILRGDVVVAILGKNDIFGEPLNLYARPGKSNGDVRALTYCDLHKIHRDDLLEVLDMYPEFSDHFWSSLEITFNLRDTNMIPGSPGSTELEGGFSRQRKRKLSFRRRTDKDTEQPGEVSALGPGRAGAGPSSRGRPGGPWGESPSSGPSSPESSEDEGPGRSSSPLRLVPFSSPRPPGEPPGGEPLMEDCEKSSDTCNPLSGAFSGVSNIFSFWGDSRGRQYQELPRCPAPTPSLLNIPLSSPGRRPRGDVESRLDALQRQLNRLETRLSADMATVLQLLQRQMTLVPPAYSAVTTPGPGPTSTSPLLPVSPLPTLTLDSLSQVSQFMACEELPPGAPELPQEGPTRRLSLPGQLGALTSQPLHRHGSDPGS

Going from `CCOC(=O)c1c(C)n(-c2ccc(C)cc2)c2ccc(O)c(CN(C)C)c12.Cl` to `CCOC(=O)c1nnc(-c2ccc(C)cc2)nc1Oc1ccccc1Cl`, the “hERG current change (%, negative = inhibition) at 10uM” value rises from -74.2% to 0.159%.

Going from `CCOC(=O)C1=C(C)NC(=S)NC1c1ccc(OCC(=O)N2CCCCCC2)c(OC)c1` (stereo not drawn) to `COc1ccc(-c2cc(C(=O)N3CCCC3)no2)cc1OC`, the “hERG current change (%, negative = inhibition) at 10uM” value falls from 14.2% to -1.69%.

First: CCCCN(C)C(=O)c1nc2ccccn2c1CNCCCn1nnc2ccccc21
Second: CN(C)S(=O)(=O)N(CC(=O)Nc1ccc2ccccc2c1)c1ccccc1
The “hERG current change (%, negative = inhibition) at 10uM” value of the first is lower: -38% for the first, 8.45% for the second.

Going from `CCNc1c(NS(=O)(=O)c2ccc(Cl)s2)c(=O)oc2ccccc12` to `O=C1CN=C(c2ccc(Cl)cc2)c2oc3ccccc3c2N1`, the “hERG current change (%, negative = inhibition) at 10uM” value rises from 3.59% to 10.2%.

Going from `CN1CCN(CCOCCOc2c(Cl)cc(Cl)cc2Cl)CC1.O=C(O)C(=O)O` to `NC(=O)CCN1CCN(C(=O)c2ccc3nc(Cc4cccc(Cl)c4)oc3c2)CC1`, the “hERG current change (%, negative = inhibition) at 10uM” value rises from -26.9% to -13.9%.

Going from `Cc1cc(C)c(S(C)(=O)=O)c(Oc2cccc(Cl)c2)n1` to `Cc1cc(OC(C)C(=O)NCc2cccnc2)c2c(C)c(C)c(=O)oc2c1` (stereo not drawn), the “hERG current change (%, negative = inhibition) at 10uM” value rises from 7.17% to 23.7%.

First: O=C(COc1cccc([N+](=O)[O-])c1)N/N=C/c1ccco1
Second: O=C(COc1ccc(Cl)cc1)N/N=C/c1cccc2cccnc12
The “hERG current change (%, negative = inhibition) at 10uM” value of the first is lower: -25.2% for the first, -20% for the second.

Compared with `C=CC(C)(O)CCCC(C)CCCC(C)CCCC(C)C` (stereo not drawn), `CCN(CC)c1ccc(C2C(C(=O)OC(C)C)C(=O)CC(C)(O)C2C(=O)OC(C)C)cc1` (stereo not drawn) is higher in “hERG current change (%, negative = inhibition) at 10uM” value: 17.1% for the first, 18% for the second.

Going from `Cc1ccnc(NC(=O)Nc2ccc(Br)cc2Cl)c1` to `COC(=O)c1sccc1NC(=O)Nc1cc(C)ccc1OC`, the “hERG current change (%, negative = inhibition) at 10uM” value falls from 11.6% to -10%.

Compared with `CCCCNC(=O)/C=C/c1ccc(OC)c(Br)c1`, `O=C(O)/C=C/C(=O)NNC(=O)c1ccccc1Br` is higher in “hERG current change (%, negative = inhibition) at 10uM” value: -6.27% for the first, 2.8% for the second.

First: Cc1ccc(Cn2c(N3CCNCC3)nc3c2c(=O)[nH]c(=O)n3C)cc1
Second: Cl.O=S(=O)(c1cccc2cnccc12)N1CCCNCC1
The “hERG current change (%, negative = inhibition) at 10uM” value of the first is higher: 13% for the first, 4.6% for the second.

Compared with `CNC(=O)NC1CCCCc2sccc21` (stereo not drawn), `CNC(=O)c1ccc(-c2sc3nc(N4CCOCC4)c4c(c3c2N)CCCC4)o1` is lower in “hERG current change (%, negative = inhibition) at 10uM” value: -15.8% for the first, -20.5% for the second.

Going from `Cc1ccc(C(=O)N2N=C(c3cccc(NS(C)(=O)=O)c3)CC2c2cccs2)cc1` (stereo not drawn) to `CC(=O)Nc1ccc(C2=NN(c3ccccc3)C(c3ccccc3)C2)cc1` (stereo not drawn), the “hERG current change (%, negative = inhibition) at 10uM” value rises from 1.13% to 4.25%.

Compared with `CC1CCN(c2nc(NCc3ccco3)nc(N)c2[N+](=O)[O-])CC1`, `COCC(C)Nc1ccc(S(=O)(=O)N2CCCC2)cc1[N+](=O)[O-]` (stereo not drawn) is higher in “hERG current change (%, negative = inhibition) at 10uM” value: -11.9% for the first, 0.637% for the second.

First: COc1ccc2cc(CCNC(=O)c3ccco3)c(=O)[nH]c2c1
Second: COc1ccccc1CNCC(=O)Nc1cc(S(=O)(=O)N2CCOCC2)ccc1Cl
The “hERG current change (%, negative = inhibition) at 10uM” value of the first is higher: -2.81% for the first, -27% for the second.

Going from `Cc1ccccc1C(=O)NC(=S)Nc1ccccc1C(=O)O` to `CC(CNC(=O)CCC(=O)N1CCOc2ccccc21)c1ccccc1` (stereo not drawn), the “hERG current change (%, negative = inhibition) at 10uM” value falls from 15.5% to -9.84%.

Compared with `OCCCn1c(C2CCCN2c2nc(-c3ccc(Cl)cc3)cs2)nc2cc(C(F)(F)F)ccc21` (stereo not drawn), `CC1CCCN(C(=O)COC(=O)/C=C/c2ccc(C(F)(F)F)cc2)C1` (stereo not drawn) is higher in “hERG current change (%, negative = inhibition) at 10uM” value: -15.2% for the first, -7.37% for the second.

Going from `Cc1ccc(C(=O)c2ccccc2C(=O)OCC(=O)Nc2ccc(SC(F)F)cc2)cc1` to `CC(=O)c1ccc(S(=O)(=O)NCc2ccc(C(=O)NCC(c3ccccc3)N(C)C)cc2)cc1` (stereo not drawn), the “hERG current change (%, negative = inhibition) at 10uM” value rises from 3.08% to 16.2%.

First: O=C(Nc1cccc(Cl)c1)C1C2CCC3C(CCC21)C3(Cl)Cl (stereo not drawn)
Second: O=C(CN1C(=O)C2C3CC(C(Br)C3Br)C2C1=O)N1CCN(Cc2ccccc2)CC1 (stereo not drawn)
The “hERG current change (%, negative = inhibition) at 10uM” value of the first is higher: 9% for the first, -19.7% for the second.

Going from `CC12C(=O)N(Cc3ccccc3)C(=O)C1C1C=CC2C1` (stereo not drawn) to `COC(=O)C1=COC(C)C2CN3CCc4c([nH]c5ccccc45)C3CC12` (stereo not drawn), the “hERG current change (%, negative = inhibition) at 10uM” value falls from -2.04% to -34.3%.

Compared with `O=[N+]([O-])c1ccccc1NCCNc1ncc(C(F)(F)F)cc1Cl`, `Nc1ccc(-c2nc3ncccc3o2)c(Cl)c1` is higher in “hERG current change (%, negative = inhibition) at 10uM” value: -3.33% for the first, 6.36% for the second.

First: CCCCN(C(=O)c1cc2c(s1)CCC2)c1c(N)n(CCCC)c(=O)[nH]c1=O
Second: CCN(CCCNC(=O)C1CCN(S(=O)(=O)c2c(C)[nH]c(=O)[nH]c2=O)CC1)c1cccc(C)c1
The “hERG current change (%, negative = inhibition) at 10uM” value of the first is lower: -0.537% for the first, 3.07% for the second.

Going from `CC1CCCN(C(=O)C(C)Nc2cc(Cl)ccc2N2CCOCC2)C1` (stereo not drawn) to `Cn1ccnc1SCC(=O)Nc1cc(S(=O)(=O)N2CCOCC2)ccc1Cl`, the “hERG current change (%, negative = inhibition) at 10uM” value rises from -17.4% to -5.42%.

Going from `CC(C)(C)c1ccc(C(=O)/C(C#N)=C/c2cccs2)cc1` to `CCCn1nnc(NC(=O)c2ccc(F)cc2)n1`, the “hERG current change (%, negative = inhibition) at 10uM” value falls from 7.3% to 3.93%.

Compared with `CCOC(=O)/C=C1\SCC(=O)N1CC(=O)NC12CC3CC(CC(C3)C1)C2`, `O=C(NCC1CCCO1)c1ccc(N2C(=O)C3CCCCC3C2=O)cc1` (stereo not drawn) is higher in “hERG current change (%, negative = inhibition) at 10uM” value: -10.3% for the first, 6.36% for the second.

Going from `N#CCc1nn(-c2ccc(F)cc2)c(N)c1C#N` to `CC(Oc1cccc(F)c1)c1ccnc2nc(/N=C/N(C)C)nn12` (stereo not drawn), the “hERG current change (%, negative = inhibition) at 10uM” value falls from 23.1% to 8.85%.

Going from `Cc1cc(C)n(CC2CC(=O)N(c3cc(Cl)cc(Cl)c3)C2=O)n1` (stereo not drawn) to `CCOc1ccc(S(=O)(=O)N(C)CC(=O)NCc2ccccn2)cc1`, the “hERG current change (%, negative = inhibition) at 10uM” value rises from -6.27% to 5.47%.

Going from `CCOc1ccc(CNCCCSc2ncccn2)cc1` to `COc1ccc(OCC(=O)NNC(=S)NC(=O)C2CC2)cc1`, the “hERG current change (%, negative = inhibition) at 10uM” value rises from -47.1% to 2.3%.

In the case of `CC(C)C(=O)NS(=O)(=O)c1ccc(N)cc1`, the “hERG current change (%, negative = inhibition) at 10uM” value is reported as 8.54%.
